Results taken from paper PMC4336329 (PLoS ONE, 2015).
Out of some 310,000 compounds screened, about 2,200 (0.71%) showed an effect of 50% or more. Effects have a minus sign here. The list shows a part of the results.

biological target: human ether-à-go-go-related gene (hERG) potassium channel (human, UniProt Q12809); test: primary screen, population patch clamp on CHO cells stably expressing hERG
Sequence (Q12809 whole entry, looked up): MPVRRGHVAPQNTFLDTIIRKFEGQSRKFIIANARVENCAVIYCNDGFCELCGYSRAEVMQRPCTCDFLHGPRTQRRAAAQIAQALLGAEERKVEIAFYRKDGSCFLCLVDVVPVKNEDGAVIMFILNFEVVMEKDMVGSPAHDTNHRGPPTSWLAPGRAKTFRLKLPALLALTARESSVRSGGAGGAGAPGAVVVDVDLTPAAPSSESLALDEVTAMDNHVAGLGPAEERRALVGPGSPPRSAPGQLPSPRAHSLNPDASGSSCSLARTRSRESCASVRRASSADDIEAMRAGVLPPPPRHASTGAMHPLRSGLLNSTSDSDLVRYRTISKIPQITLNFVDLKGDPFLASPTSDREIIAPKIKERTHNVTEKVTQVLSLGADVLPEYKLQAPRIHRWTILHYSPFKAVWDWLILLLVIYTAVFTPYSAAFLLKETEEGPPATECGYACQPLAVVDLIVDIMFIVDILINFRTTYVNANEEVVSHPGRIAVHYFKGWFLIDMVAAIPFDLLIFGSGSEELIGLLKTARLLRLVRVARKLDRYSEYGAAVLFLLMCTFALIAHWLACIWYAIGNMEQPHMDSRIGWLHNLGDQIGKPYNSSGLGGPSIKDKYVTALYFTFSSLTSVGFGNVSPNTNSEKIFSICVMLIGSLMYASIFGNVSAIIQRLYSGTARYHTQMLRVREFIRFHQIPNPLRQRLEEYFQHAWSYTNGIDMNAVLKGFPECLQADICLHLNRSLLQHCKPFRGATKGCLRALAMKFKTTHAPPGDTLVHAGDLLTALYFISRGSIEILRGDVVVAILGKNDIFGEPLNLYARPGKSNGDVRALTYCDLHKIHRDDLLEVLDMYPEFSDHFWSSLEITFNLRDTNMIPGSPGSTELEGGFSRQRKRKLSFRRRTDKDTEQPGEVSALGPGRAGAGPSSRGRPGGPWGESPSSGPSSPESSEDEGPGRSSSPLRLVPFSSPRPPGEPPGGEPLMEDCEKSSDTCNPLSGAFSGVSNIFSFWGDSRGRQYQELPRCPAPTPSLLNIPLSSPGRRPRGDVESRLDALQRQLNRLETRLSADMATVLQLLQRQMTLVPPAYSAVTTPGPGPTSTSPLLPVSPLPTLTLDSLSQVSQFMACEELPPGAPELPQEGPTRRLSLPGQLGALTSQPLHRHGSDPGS

Structure (SMILES)	hERG current change (%, negative = inhibition) at 1uM [%]
OCCC1CN(Cc2nc3ccccc3s2)CCN1C1CCCCC1 (centres unmarked)	-19.6
CC(=O)NC(CC(=O)OCc1ccc([N+](=O)[O-])cc1)c1ccccc1 (centres unmarked)	-27
COc1cc(/C=N/NC(=O)c2cccc(N3CCCC3=O)c2)ccc1O	22
Cc1ccc(N(C(=O)Cn2nnc(-c3ccccc3)n2)C(C(=O)NC2CCCCC2)c2ccccn2)cc1C (centres unmarked)	9.25
COc1ccc(NC(=O)C(OC(=O)c2ccc([N+](=O)[O-])o2)c2ccccc2)cc1Cl (centres unmarked)	-4.89
CCCCNC(=O)/C(C#N)=C/c1cccnc1	4.13
O=C(COC(=O)c1ccc(-c2ccccc2)cc1)Nc1ccccc1-c1ccccc1	10.7
CCCCSc1[nH]c(=O)c(C(=O)OCC)cc1C#N	4.97
NC(=O)c1ccc[n+](CC(=O)c2cccc([N+](=O)[O-])c2)c1.[Br-]	12.1
CC(=O)c1cccc(NC(=O)c2ccc(CN3CCc4ccccc4C3)cc2)c1	6.79
CCn1c(=O)cc(SCC(=O)NCc2ccc3c(c2)OCO3)c2ccccc21	13.5
COC(=O)c1ccccc1NC(=O)CSc1nc(NC(=O)c2ccccc2)c2c(C)c(C)oc2n1	8.92
CCN(CC)c1ccc(/C=N/NC(=O)c2cc(C)nc3ccccc23)cc1	11.2
CC1CN(c2oc(Cc3cccc4ccccc34)nc2C#N)CC(C)O1 (centres unmarked)	10.3
Cc1ccc(CNc2ccc(S(=O)(=O)N3CCOCC3)cc2[N+](=O)[O-])cc1	-6.45
CC1CCCCC1NC(=O)c1cccc(S(=O)(=O)N2CCN(C)CC2)c1 (centres unmarked)	1.2
Cn1c(SCc2ccccc2C#N)nc2ccccc2c1=O	12
Cc1noc(C)c1CSCC(=O)N(CCC(C)C)c1c(N)n(Cc2ccccc2)c(=O)[nH]c1=O	-1.82
CCCN(CCC)CCCNC(=O)c1cn(C)c2ccc(S(=O)(=O)N(C)C3CCCCC3)cc2c1=O	-34.7
O=C(Nc1ccccc1)Nc1ccno1	15.7
C1CCc2nnc(C3CC3)n2CC1	4.75
COc1ccc(CCNC(=O)CNCC(c2ccccc2)N(C)C)cc1OC.O=C(O)C(=O)O (centres unmarked)	18.7
O=C(Nc1ccc(C(=O)N2CCOCC2)cc1)Nc1cccc(Cl)c1	4.28

Structure (SMILES)	hERG current change (%, negative = inhibition) at 1uM [%]
CCOC(=O)c1cc2sccc2n1CC(=O)OC	9.17
CCCCNC(=O)NS(=O)(=O)c1ccc(NC(=O)CCC(=O)c2cccs2)cc1	18.4
CC1CN(C(=O)CCC(=O)NCCc2ccccc2)c2ccccc2O1 (centres unmarked)	8.02
O=C(O)c1ccc(-n2nnc3ccccc32)c([N+](=O)[O-])c1	20.2
CCc1cccc(C)c1NC(=O)c1ccc(CN2CCc3ccccc3C2)cc1	12.6
Cc1ccc(OCC(O)CNC(=O)c2ccccc2C(=O)O)cc1 (centres unmarked)	11.9
O=C(CNC(=O)Cc1ccccc1)NCC(=O)OCC(=O)c1ccc(Cl)cc1	10.8
Cc1cc(Nc2ccc3c(c2)OCCO3)n2nc(C)nc2n1	0.891
CC(C)Oc1ccc(N2CC(C(=O)Nc3ccccc3F)CC2=O)cc1 (centres unmarked)	8.34
N/C(=N\OC(=O)c1cccc(F)c1)c1ccccc1	8.36
Cn1c(C(=O)NCC2CCCO2)cc2oc3ccccc3c21 (centres unmarked)	7.45
Cc1cc(C)c(OCCn2ccnc2)c(C)c1	20.3
CC(=O)c1cccc(NC(=O)CCNC(=O)c2ccccc2Cl)c1	10.5
Cc1cccc(C)c1OCCOC(=O)c1cccc(S(=O)(=O)N2CCOCC2)c1	3.47
O=C(O)CN1C(=O)COc2cc(S(=O)(=O)N3CCCC3)ccc21	8.13
CCOC(=O)c1ccc(COC(=O)c2cc3ccccc3oc2=O)o1	6.51
CCOC(=O)N1CCN(c2c(Nc3ccc4c(c3)OCCO4)c(=O)c2=O)CC1	15.4
Cc1ccnc(SCC(=O)O)n1	9.66
NS(=O)(=O)c1ccc(CCNC(=O)CSc2nc3ccsc3c(=O)n2CC2CCC(C(=O)O)CC2)cc1 (centres unmarked)	18.5
O=C(O)c1cc(S(=O)(=O)NC(Cc2c[nH]c3ccccc23)C(=O)O)ccc1Cl (centres unmarked)	11.9
COC(=O)C1[C@H]2C(=O)N(Cc3cccs3)C[C@]23C=C[C@H]1O3 (some centres unmarked)	-4.46
CC(=O)Nc1ccc(C(=O)CSc2cc(C)c3cccc(C)c3n2)cc1	14.7
Cc1ccc2c(CC(=O)OCc3csc(C)n3)coc2c1	17.2

Structure (SMILES)	hERG current change (%, negative = inhibition) at 1uM [%]
O=C(c1cnccn1)N1CCc2ccccc21	15.7
Cl.Nc1ccc2nc(CCCO)[nH]c2c1	9.88
COCCN1C(=O)C(=O)/C(=C(/O)c2cccc(OC)c2)C1c1ccc(C)o1 (centres unmarked)	-3.8
CS(=O)(=O)N1CCC(C(=O)NCc2ccco2)CC1	11.3
CCSc1[nH]c2ccccc2[nH+]1.[Cl-]	10.8
Cc1[nH]n2c(=O)c(C#N)c(-c3ccccc3)nc2c1-c1ccccc1	12.1
COc1cccc(CNC(=O)CN2CCC(c3nc4ccc(C)cc4[nH]3)CC2)c1	-17.8
CC1SC(C)C(=O)N(CC(=O)Nc2ccc([N+](=O)[O-])cc2)C1=O (centres unmarked)	5.92
N/C(=N\N=C\c1cccs1)SC1CC(=O)N(c2cccc([N+](=O)[O-])c2)C1=O (centres unmarked)	9.86
Nc1oc2ccccc2c(=O)c1C=O	5.34
Cc1ccc(O)c(Nc2ncnc3ccccc23)c1.Cl	10.7
CN(C)C(CNC(=O)c1ccc(Br)cc1)c1ccco1 (centres unmarked)	17.7
O=C(NCCCN1CCOCC1)c1cc2ccccc2o1	10.8
O=C(CN(C(=O)CCC(=O)Nc1nccs1)c1cccc(F)c1)NCc1ccccc1	11
CCCC(=O)C1=C(O)C(C(=O)OC)C(C)(C)CC1=Nc1ccncc1 (centres unmarked)	2.98
CCCCCCOc1ccc(C(=O)NCCCn2ccnc2)cc1	2.64
O=C(NNC(=O)c1cccs1)c1ccc2ccccc2c1	3.54
COc1ccc(OCC(=O)Nc2ccc(S(=O)(=O)Nc3nc(C)cc(C)n3)cc2)cc1	8.75
O=C(CC1C(=O)N(Cc2ccccc2)C(=S)N1CCN1CCOCC1)Nc1ccc(F)cc1 (centres unmarked)	13.3
C=CC[n+]1cccc(-c2cc3ccc(C)cc3[nH]2)c1.[Br-]	2.95
CC(=O)Nc1ccc(/C=C/c2ccc3c([N+](=O)[O-])cccc3n2)cc1	11.8
COc1ccc(-c2nc3oc4cc(OC)ccc4c(=O)c3c(=O)n2Cc2ccco2)cc1	-2.23
O=C(NCc1ccccc1)C1CCCN1S(=O)(=O)c1cccc2cccnc12 (centres unmarked)	10.5

Structure (SMILES)	hERG current change (%, negative = inhibition) at 1uM [%]
CCn1c(NN)nc2sc3c(c2c1=O)CCC3	12
COc1ccc(NC(=O)Nc2ccc(C(=O)N3CCOCC3)cc2)c(OC)c1	8.31
O=C(c1cc(-c2cccs2)nc2ccccc12)N1CCN(c2ccccc2O)CC1	10.6
CC1=C(C(=O)NC2CCCC(C)C2C)C2(CCCCC2)OC1=O (centres unmarked)	2.66
COc1ccccc1-c1sc2ccccc2c1-c1ccccc1OC	12
Cc1noc(C)c1S(=O)(=O)N1CCCC1C(=O)NC(C)(C)C (centres unmarked)	0.145
CCOC(=O)CSc1nc(COc2ccccc2)nc2ccccc12	9.12
O=C(COC(=O)c1ccccc1NS(=O)(=O)c1ccc(Cl)cc1)NCc1ccccc1	10.5
O=c1oc2ccc(Cl)cc2cc1-c1ccccc1	16.1
Cc1cccc(C(=O)n2c(=S)nc3ccccn32)c1	3.04
CCCCCC(=O)N/N=C(\C)c1ccc(N2CCCCC2)cc1	8.34
CCOC(=O)N1CCC(NC(=O)C2CCN(S(=O)(=O)c3ccc4c(c3)oc(=O)n4C)CC2)CC1	18.7
COc1ccc(CCNC(=O)C(=O)NCc2ccc(C)cc2)cc1OC	-0.724
O=C(NCCc1ccco1)c1nn(Cc2ccccc2)c(=O)c2ccccc12	9.35
Cc1ccc(C(=O)c2c3ccccc3[n+]([O-])n2CCC(N)=O)cc1	0.352
NS(=O)(=O)OCCCc1ccccc1	8.79
CC(C)C(=O)N1CCC2(CC1)Oc1ccc(F)cc1C(=O)C21CC(c2ccc(Cl)cc2)=NO1 (centres unmarked)	13.6
CN(C)c1ccc(Nc2ccc([N+](=O)[O-])cn2)cc1	21
Nc1nnn(CC(=O)N/N=C/C=C/c2ccccc2)n1	10.6
Cc1cc(C)c(C)c(S(=O)(=O)NCc2ccc(C(=O)N3CCN(C)CC3)cc2)c1C	8.45
